{"source": "PubChem BioAssay AID1508642", "about": "(National Center for Advancing Translational Sciences (NCATS), 2021)", "note": "The campaign covered roughly 43,000 compounds. About 200 (0.47%) were called active. About 12% were inconclusive and are not listed. Calls follow the shape of the dose curve; as a rule, active = well fitted cell-killing curve with a large enough effect; inconclusive = small, poorly fitted or top-dose-only effect, or effect the other way; inactive = flat fitted curve, though single readings scatter. The list shows a part of the results. % is scaled to controls: 0 for no effect and ±100 for the full control effect."}
{"test": "Cell viability qHTS assay in S16 Pmp22-F2sN cells; also: nearly all actives have a fitted effect of over 65% in size", "conditions": "S16 Pmp22-F2sN Schwann cells viability, CellTiter-Glo, 24 h; series mostly up to 57.5 µM; activity change, negative = cytotoxicity: at the top concentration", "summary_of_the_method": "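Viability was measured by CellTiter-Glo luminescence (15 min, room temperature). This followed 24 h at 37 °C of compound exposure (23 nL pin transfer) in S16 Pmp22-F2sN Schwann cells, 500-1,000 per well.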"}
{"smiles": "O=C(CCCCCn1c(=O)[nH]c2ccccc2c1=O)NCc1cccc(Cl)c1", "activity change, negative = cytotoxicity": "inactive: 0.665%"}
{"smiles": "Cn1c(=O)c2c(SCC(=O)N3CCc4ccccc43)nc(-c3cccc(F)c3)nc2n(C)c1=O", "activity change, negative = cytotoxicity": "inactive: 0.992%"}
{"smiles": "CCOc1ccccc1CNC(=O)C1CCN(S(=O)(=O)c2cccc3nonc23)CC1", "activity change, negative = cytotoxicity": "inactive: 8%"}
{"smiles": "O=c1[nH]c2ccc(NCc3ccc(-c4cccc(Cl)c4)o3)cc2[nH]1", "activity change, negative = cytotoxicity": "inactive: -22.3%"}
{"smiles": "CCOc1ccc(S(=O)(=O)N2CCN(c3cc(Cl)ccc3Cl)CC2)c2ccccc12", "activity change, negative = cytotoxicity": "inactive: 9.06%"}
{"smiles": "CCN(c1ccccc1)S(=O)(=O)c1cc(-c2onc(C)c2C)ccc1OC", "activity change, negative = cytotoxicity": "inactive: -26.3%"}
{"smiles": "Cc1ccc(C)c(Cn2c(C(C)NC(=O)c3ccc(F)cc3)nc3ccccc32)c1", "note": "(configuration not stated)", "activity change, negative = cytotoxicity": "inactive: -2.13%"}
{"smiles": "Cc1c2cnn(CC(=O)N3CCN(c4ccccc4)CC3)c(=O)c2c(C)n1Cc1ccc(F)cc1", "activity change, negative = cytotoxicity": "inactive: -20%"}
{"smiles": "CCOc1ccccc1NC(=O)CCS(=O)(=O)c1cccc2nsnc12", "activity change, negative = cytotoxicity": "inactive: -5.04%"}
{"smiles": "Cc1ccc(Nc2ncnc3c2cnn3-c2ccccc2)c(C)c1", "activity change, negative = cytotoxicity": "inactive: 11.9%"}
{"smiles": "Cc1cccc(-c2noc(CCCC(=O)NCc3ccco3)n2)c1", "activity change, negative = cytotoxicity": "inactive: 0.677%"}
{"smiles": "COCCn1c(CCC(=O)Nc2cc(C)ccc2C)nc2cccnc21", "activity change, negative = cytotoxicity": "inactive: -5.34%"}
{"smiles": "CCn1c(=O)c2sccc2n2c(CCCC(=O)N3CCN(c4ccc(OC)cc4)CC3)nnc12", "activity change, negative = cytotoxicity": "inactive: 17.4%"}
{"smiles": "CCc1cccc(NC(=O)c2nnn(Cc3ccc(SC)cc3)c2N)c1", "activity change, negative = cytotoxicity": "inactive: 4.72%"}
{"smiles": "CCOCCCNC(=O)C(c1ccccc1)N(Cc1cccs1)C(=O)c1ccc(NC(C)=O)cc1", "note": "(configuration not stated)", "activity change, negative = cytotoxicity": "inactive: -13.9%"}
{"smiles": "COc1ccc(N2CCN(C(=O)c3c(C)oc4ncnc(N5CCCCC5)c34)CC2)cc1", "activity change, negative = cytotoxicity": "inactive: 22.3%"}
{"smiles": "Cc1cccc(N2CCN(C(=O)C3CCCN(S(=O)(=O)c4cccc5nsnc45)C3)CC2)c1C", "note": "(configuration not stated)", "activity change, negative = cytotoxicity": "inactive: 19.8%"}
{"smiles": "O=C1CC(c2ccccc2)Cc2[nH]c(=O)c(C(=O)Nc3ccc(OC(F)(F)F)cc3)cc21", "note": "(configuration not stated)", "activity change, negative = cytotoxicity": "inactive: 15.1%"}
{"smiles": "O=C(CN1C(=O)CCSc2ccc(S(=O)(=O)N3CCCC3)cc21)Nc1ccccc1", "activity change, negative = cytotoxicity": "inactive: -11.3%"}
{"smiles": "CCC(C(=O)Nc1ccccc1C(=O)OC)n1c(C)c2cnn(-c3ccccc3)c(=O)c2c1C", "note": "(configuration not stated)", "activity change, negative = cytotoxicity": "inactive: -2.53%"}
{"smiles": "CCC(Oc1ccccc1)C(=O)Nc1ccc(O)c(-c2nc3cc(C)ccc3o2)c1", "note": "(configuration not stated)", "activity change, negative = cytotoxicity": "inactive: -18.4%"}
{"smiles": "Cn1c(CN2CCCCC2)nc2cc(NC(=O)c3cccc(Br)c3)ccc21", "activity change, negative = cytotoxicity": "inactive: -14.1%"}
{"smiles": "NC(=O)CSc1oc(-c2ccco2)nc1S(=O)(=O)c1ccc(Br)cc1", "activity change, negative = cytotoxicity": "inactive: -15%"}
{"smiles": "CCCCn1cc(S(=O)(=O)c2ccc(C)c(C)c2)c(=O)c2cc(F)c(N3CCN(C)CC3)cc21", "activity change, negative = cytotoxicity": "inactive: -0.941%"}
{"smiles": "COc1cccc(NC(=O)CCS(=O)(=O)c2ccc3c(c2)oc(=O)n3C)c1", "activity change, negative = cytotoxicity": "inactive: 1.73%"}
{"smiles": "COc1ccc(NC(=O)Cn2c(=O)n(CCCC(=O)NCc3ccccc3OC)c(=O)c3ccccc32)cc1Cl", "activity change, negative = cytotoxicity": "inactive: 20.7%"}
{"smiles": "O=C(Cn1cc(S(=O)(=O)Cc2ccccc2Cl)c2ccccc21)NCc1ccccc1Cl", "activity change, negative = cytotoxicity": "inactive: -17.2%"}
{"smiles": "Cn1c(=O)oc2cc(S(=O)(=O)N3CCC(C(=O)NCc4ccccc4Cl)CC3)ccc21", "activity change, negative = cytotoxicity": "inactive: 8.64%"}
{"smiles": "O=C1CN(C(=O)Cc2ccc(F)cc2)C(c2ccccc2)c2cc(Br)ccc2N1", "note": "(configuration not stated)", "activity change, negative = cytotoxicity": "inactive: -4.52%"}
{"smiles": "O=C1c2oc3ccccc3c(=O)c2C(c2ccc(Br)cc2)N1c1ccccn1", "note": "(configuration not stated)", "activity change, negative = cytotoxicity": "inactive: 2.92%"}
{"smiles": "COC(=O)c1cnn(-c2ccc(C(=O)Nc3cccc(C(C)=O)c3)cc2)c1N", "activity change, negative = cytotoxicity": "inactive: 1.28%"}
{"smiles": "CCOc1ccc(NC(=O)CC2C(=O)N(c3ccccc3)C(=O)N2CCc2ccc(OC)cc2)cc1", "note": "(configuration not stated)", "activity change, negative = cytotoxicity": "inactive: 5.84%"}
{"smiles": "Cc1cccc(OCc2cc(=O)n3c(-c4ccccc4)csc3n2)c1C", "activity change, negative = cytotoxicity": "inactive: -1.91%"}
{"smiles": "CCCn1c(SCc2nc(-c3ccccc3C)no2)nnc1-c1ccc(Cl)cc1", "activity change, negative = cytotoxicity": "inactive: -22.9%"}
{"smiles": "CCOC(=O)c1[nH]c(C)c(CCC(=O)Nc2c(C)cc(C)cc2C)c1C", "activity change, negative = cytotoxicity": "inactive: -9.37%"}
{"smiles": "Cc1cccc(N2CCN(C(=O)C3CCC(CNS(=O)(=O)c4ccc(Br)s4)CC3)CC2)c1C", "note": "(configuration not stated)", "activity change, negative = cytotoxicity": "inactive: 2.45%"}
{"smiles": "CCc1nn(CC(=O)N2CCN(c3cccc(C)c3C)CC2)c(=O)c2cc3occc3n12", "activity change, negative = cytotoxicity": "inactive: -8.82%"}
{"smiles": "COc1ccc(N2C(=O)CSC23C(=O)N(CC(=O)NC2CCCCC2)c2ccccc23)cc1", "note": "(configuration not stated)", "activity change, negative = cytotoxicity": "inactive: -1.96%"}
{"smiles": "CC(=O)c1ccc(N2CCN(S(=O)(=O)c3c(C)nc4sc(C)cn4c3=O)CC2)cc1", "activity change, negative = cytotoxicity": "inactive: 5.76%"}
{"smiles": "Cc1nc2ccccc2n1CCc1nc2c3ccccc3nc(SCc3cccc(F)c3)n2n1", "activity change, negative = cytotoxicity": "inactive: 10.7%"}
{"smiles": "CC1=C(C(=O)Nc2ccccc2)C(c2ccccc2C)n2ncc(C(=O)Nc3ccccc3)c2N1", "note": "(configuration not stated)", "activity change, negative = cytotoxicity": "inactive: -20.3%"}
{"smiles": "CCOc1ccccc1NC(=O)Cn1c(=O)n(CCC(C)C)c(=O)c2cccnc21", "activity change, negative = cytotoxicity": "inactive: 11.8%"}
{"smiles": "O=C(COC(=O)c1cc(-c2cccs2)nc2ccccc12)c1ccc(Br)cc1", "activity change, negative = cytotoxicity": "inactive: 23%"}
{"smiles": "COc1ccc(CCNC(=O)CCn2c(=O)c3ccccc3n(CC(=O)Nc3ccccc3F)c2=O)cc1OC", "activity change, negative = cytotoxicity": "inactive: 3.02%"}
{"smiles": "Cn1c(=O)c2sccc2n2c(CCC(=O)NCc3ccc(F)cc3)nnc12", "activity change, negative = cytotoxicity": "inactive: 2.26%"}
{"smiles": "Cc1ccc2c(=O)c(C(=O)c3ccccc3)cn(CC(=O)Nc3ccc4c(c3)OCCO4)c2n1", "activity change, negative = cytotoxicity": "inactive: 8.92%"}
{"smiles": "Cc1c(C(=O)N2CCC(c3nc4ccccc4s3)CC2)oc2cc(Br)ccc12", "activity change, negative = cytotoxicity": "inactive: 1.41%"}
